Data on six molecules can be found in publication PMC4481407.

Amino acid sequences for entries named in this document (tags omitted).
UniProt P05205: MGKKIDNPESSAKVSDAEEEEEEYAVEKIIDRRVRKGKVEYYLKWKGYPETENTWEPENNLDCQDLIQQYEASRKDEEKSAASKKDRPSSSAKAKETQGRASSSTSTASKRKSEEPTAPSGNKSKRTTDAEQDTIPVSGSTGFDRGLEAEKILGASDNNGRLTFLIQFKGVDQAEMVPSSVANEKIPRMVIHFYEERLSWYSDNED

Experiment [1] has as its target T1, GST-Peo 2 (Drosophila melanogaster) (UniProt Q7K4V4).
T1 sequence: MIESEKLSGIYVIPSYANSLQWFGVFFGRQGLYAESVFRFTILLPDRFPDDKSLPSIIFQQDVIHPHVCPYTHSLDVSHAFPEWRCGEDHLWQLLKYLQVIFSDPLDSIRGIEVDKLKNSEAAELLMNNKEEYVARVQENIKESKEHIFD
Nature of the experiment: pull-down; 2 μg bacterially expressed GST-Peo or GST-Peo fragment on sepharose beads with Drosophila S2 cell extracts expressing HOAP-FLAG, Ver-FLAG or Moi-HA; 20 mM Hepes KOH, 20 mM NaF, 0.8% NP40, 1 h at 4°C; anti-FLAG or anti-HA blot; only the target purified.

The target in experiment [2] is T2, GST-Peo (Drosophila melanogaster) (UniProt Q7K4V4).
T2 sequence: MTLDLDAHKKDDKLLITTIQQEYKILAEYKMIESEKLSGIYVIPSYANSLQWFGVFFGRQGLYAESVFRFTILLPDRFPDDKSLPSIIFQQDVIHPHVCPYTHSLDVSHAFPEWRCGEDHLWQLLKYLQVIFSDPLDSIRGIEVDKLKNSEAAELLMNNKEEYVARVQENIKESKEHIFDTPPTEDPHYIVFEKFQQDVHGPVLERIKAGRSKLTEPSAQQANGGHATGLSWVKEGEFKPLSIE
Described as above.

Experiment [3] addresses T3, GST-Peo 3 (Drosophila melanogaster) (UniProt Q7K4V4).
T3 sequence: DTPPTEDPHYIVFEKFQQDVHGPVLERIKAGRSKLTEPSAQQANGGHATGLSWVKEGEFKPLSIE
Described as above.

For experiment [4], the target named is T4, GST-Peo 1 (Drosophila melanogaster) (UniProt Q7K4V4).
T4 sequence: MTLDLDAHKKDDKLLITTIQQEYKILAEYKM
Described as above.

For experiment [5], the target named is HP1a (yeast two-hybrid fusion) (Drosophila melanogaster) (UniProt P05205). Nature of the experiment: two-hybrid; S. cerevisiae AH109; growth on SD/-His/-Trp/-Leu plates with 20 mM 3-AT; Gal4 BD and AD fusions.
For experiment [6], the target named is T5, HOAP (yeast two-hybrid fusion) (Drosophila melanogaster) (UniProt Q95RV2).
T5 sequence: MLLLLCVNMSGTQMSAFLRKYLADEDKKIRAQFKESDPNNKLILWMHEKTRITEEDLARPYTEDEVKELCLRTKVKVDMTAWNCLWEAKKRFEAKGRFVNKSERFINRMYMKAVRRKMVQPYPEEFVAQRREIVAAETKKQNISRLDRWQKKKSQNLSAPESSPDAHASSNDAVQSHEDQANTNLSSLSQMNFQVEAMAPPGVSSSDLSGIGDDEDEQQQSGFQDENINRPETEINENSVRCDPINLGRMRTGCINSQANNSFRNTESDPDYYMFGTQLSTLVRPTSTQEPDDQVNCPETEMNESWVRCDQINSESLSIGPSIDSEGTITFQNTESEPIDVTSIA
The description is as above.

The target of experiment [7] is T6, GST-HOAP (Drosophila melanogaster) (UniProt Q95RV2).
T6 sequence: T5 sequence
Nature of the experiment: pull-down; 2 μg GST fusion protein on sepharose beads with extracts of human cells (HeLa in methods and legend, 293T in results) expressing Peo-FLAG; 20 mM Hepes KOH, 20 mM NaF, 0.8% NP40, 1 h at 4°C; anti-FLAG blot; only the target purified.

The target of experiment [8] is T7, GST-Moi (Drosophila melanogaster) (UniProt B7Z0L8).
T7 sequence: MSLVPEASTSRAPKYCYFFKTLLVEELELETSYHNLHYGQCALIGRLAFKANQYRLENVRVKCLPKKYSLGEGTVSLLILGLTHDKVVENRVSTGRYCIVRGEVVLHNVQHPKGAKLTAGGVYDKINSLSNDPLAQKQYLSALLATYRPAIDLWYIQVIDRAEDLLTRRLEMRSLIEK
The experiment is described as above.

The target of experiment [9] is T8, GST-Ver (Drosophila melanogaster) (UniProt Q9VTZ2).
T8 sequence: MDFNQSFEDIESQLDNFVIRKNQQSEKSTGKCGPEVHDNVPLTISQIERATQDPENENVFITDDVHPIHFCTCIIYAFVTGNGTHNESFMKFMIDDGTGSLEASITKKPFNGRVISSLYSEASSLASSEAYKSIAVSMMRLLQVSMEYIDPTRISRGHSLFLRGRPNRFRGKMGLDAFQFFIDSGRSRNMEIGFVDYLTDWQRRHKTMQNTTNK
Described as above.

Experiment [10] concerns the target T9, GST-HOAP ∆N-TERM (Drosophila melanogaster) (UniProt Q95RV2).
T9 sequence: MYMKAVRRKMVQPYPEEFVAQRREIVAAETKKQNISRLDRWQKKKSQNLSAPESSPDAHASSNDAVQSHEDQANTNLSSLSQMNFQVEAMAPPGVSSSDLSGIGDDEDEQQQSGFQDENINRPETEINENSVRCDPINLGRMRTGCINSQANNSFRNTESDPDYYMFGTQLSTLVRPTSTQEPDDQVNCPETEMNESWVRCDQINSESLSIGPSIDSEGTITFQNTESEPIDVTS
Nature of the experiment: pull-down; GST-HOAP polypeptides of different length on sepharose beads with bacterially expressed 6His-Peo; 20 mM Hepes KOH, 20 mM NaF, 0.8% NP40, 1 h at 4°C; His-Peo detected with anti-Peo antibody; both purified.

The target of experiment [11] is T6, GST-HOAP (Drosophila melanogaster). The experiment is described as above.

These are yes or no findings as the source states them, for the method shown. For some of these results: Binding seen in cells or lysates may run through a third protein. Some results given as binding are weak or reduced against the parent protein; the word gives no strength. Tags and fused reporters may be left off the sequences shown.

B1: Moi-HA (protein, UniProt B7Z0L8 1-178)
chain: T7 sequence
Regarding B1, the binding result in [1] is given as “binds”; in experiment [2], “binds”; in experiment [3], “no binding”; in [4] it was “binds”.

B2: Peo (yeast two-hybrid fusion) (protein, UniProt Q7K4V4 1-244)
chain: T2 sequence
As to B2, the binding entry is on record as “no binding” in experiment [5] and “binds” in experiment [6].

B3: Peo-FLAG (protein, UniProt Q7K4V4 1-244)
chain: T2 sequence
As to B3, the binding result in experiment [7], in [8] and in experiment [9] was “binds” in each case.

B4: 6His-Peo (protein, UniProt Q7K4V4 1-244)
chain: T2 sequence
On to B4, for which the binding entry in experiment [10] is given as “no binding”; in [11], “binds”.

B5: Ver-FLAG (protein, UniProt Q9VTZ2 1-214)
chain: T8 sequence
As to B5, the binding result is “binds” in experiment [1], “binds” in experiment [2], “no binding” in [3] and “binds” in experiment [4].

B6: HOAP-FLAG (protein, UniProt Q95RV2 1-345)
chain: T5 sequence
For B6, the binding entry in experiment [1] is “no binding”; in experiment [2], “binds”; in experiment [3], “no binding”; in experiment [4] it was “binds”.
